This is one part of the list.
tested on: T1, C. trachomatis L2/434/Bu expressing GFP (CTL2-GFP); design: species or system HeLa; C. trachomatis total inclusion area by high-content imaging, normalised to DMSO; conditions: total inclusion area; 28.5 h, 10 µM; inhibitor
T1 construct: L2/434/Bu GFP intracellular growth in HeLa cells
Procedure, shortened: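 Imaging read-out: GFP inclusions and Hoechst nuclei captured by high-content imaging after fixation. Inclusion area/number = chlamydial growth; nuclei count = host cell viability. MIC calculated per earlier method.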

Structure (SMILES)	% of control remaining
COc1ccc(-c2cc3cccnc3n2CC(=O)NC(C)(C)C)cc1 [CBK285381]	83.2274
Cc1cc(C)nc(NC(=N)NCCc2c[nH]c3ccccc23)n1 [CBK266321]	27.0161
COCc1nc2n(n1)CC(NC1CCc3ccccc3CC1)CC2 (centres unmarked) [CBK304737]	56.3245
Cc1oc2c(c1C(=O)NC(C)c1ccccn1)CCCC2 (centres unmarked) [CBK281825]	102.89
CC(Oc1ccc(F)cc1)C(=O)NCCN1CCOCC1 (centres unmarked) [CBK265508]	100.925
CC(C)(C)C(=O)N1CCC(n2nc(-c3ccco3)ccc2=O)CC1 [CBK282341]	105.032
O=S(=O)(c1ccc(Cl)c(Cl)c1)N1CCOCC1 [CBK043794]	83.3317
CN(C)c1cccc(Nc2ccc(-c3ccco3)cn2)c1 [CBK036885]	141.105
O=C(CSCc1c(Cl)cccc1Cl)NN1C(=O)c2ccccc2C1=O [CBK267800]	114.667
CC(C)(C)S(=O)(=O)c1ccc(C(=O)O)s1 [CBK260880]	81.5775
O=c1[nH]c2ccc(NC(=S)NCc3ccccc3)cc2[nH]1 [CBK296099]	71.9672
Cc1nc2ccccc2c(=O)n1CC(=O)NCc1ccccc1 [CBK072830]	101.423
O=C(CC1Nc2cccc3cccc(c23)NC1=O)Nc1ccccc1 (centres unmarked) [CBK268035]	98.2807
Cc1noc(C)c1CC(=O)N1[C@H]2CCCCCN(C)[C@@]2(C)C[C@H]1c1ccccc1 [CBK286094]	106.633
Fc1cc2c3c(c1)c1c(n3CCC2)CCNCC1 [CBK018406C]	84.5705
Cc1cnoc1-c1cc(Cl)cc(Cl)c1O [CBK015870]	91.8512
O=C(Cc1cccnc1)N1CCC(c2cccc(Cc3ccc(C(F)(F)F)cc3)n2)CC1 [CBK286223]	45.5759
CC(=O)N[C@H](C)Cn1nnc2ccccc21 [CBK282246]	94.0561
COc1ccc(CN(C)C(=O)CCc2c(C)nc3c(cnn3C(C)C)c2C)cc1 [CBK297087]	106.301
C/C(=N\NC(=O)CC1(C)OCCO1)c1oc(C)cc1C [CBK022234]	62.0192
CCCN(Cc1ccoc1)CC1CC1 [CBK018931]	88.3233
Cc1cccc(C)c1NC(=S)N1CCC2(CC1)OCCO2 [CBK016408]	50.2349
O=C(c1ccc(-c2nccnc2NCc2ccco2)cc1)N1CCOCC1 [CBK036920]	125.214
Cc1cc(C)n(C(=O)c2cccc(S(=O)(=O)N3CCCCCC3)c2)n1 [CBK266727]	108.788
CC(C)(C)NC(=O)CCn1c(-c2ccncc2)cc2cccnc21 [CBK282620]	118.404
O=C(C1CC1)N1CCc2cc(-c3cn4ccccc4n3)ccc21 [CBK285193]	94.6955
Cc1ccc2c(NC(=O)c3cc4c([nH]c3=O)CCC4)c(C)ccc2n1 [CBK281568]	109.079

Structure (SMILES)	% of control remaining
O=C(N/N=C/c1c[nH]c2ccc(Br)cc12)c1ccncc1 [CBK262798]	83.5546
COc1ccc2[nH]cc(CCNC(=O)c3ccc4nc[nH]c4c3)c2c1 [CBK122714]	103.093
COCCC(=O)N1C[C@@H](c2ccccc2F)[C@@]2(CCCC(=O)N2)C1 [CBK283360]	97.398
COc1cc(/C=C2\NC(=O)N(Cc3ccc([N+](=O)[O-])cc3)C2=O)ccc1OC(C)C(=O)O (centres unmarked) [CBK265348]	106.89
COc1ccc(-c2c(O)n[nH]c2CCC2CCCC2)cc1 [CBK075126]	101.711
CCn1ncc(CN2CCC(O)(c3ccc(C)cc3)CC2)c1C [CBK282956]	87.0273
O=C(O)c1cc(NC(=O)C2CCCO2)ccc1O (centres unmarked) [CBK269815]	90.5091
Cc1ccc(C2(CN3CCN(Cc4cncn4C)CC3)CC2)cc1 [CBK283308]	103.786
Cc1ccc(-n2c(SCC(=O)N3CCCCC3)nnc2-c2cc(Br)ccc2O)c(C)c1 [CBK269070]	104.28
O=C(O)CC1(CC(=O)Nc2ccc(N3CCCC3=O)c(Cl)c2)CCCCC1 [CBK296664]	92.0816
c1nc(Sc2nccs2)cc(N2CCCC2)n1 [CBK093748]	85.6558
CN1C2C=C(N(CCc3ccccc3)C(=O)c3ccc(-c4ccccc4)cc3)CC1CC2 (centres unmarked) [CBK262596C]	87.1045
Cc1ccc(S(=O)(=O)NCCSCc2cccc(Cl)c2)cc1[N+](=O)[O-] [CBK264116]	97.6339
CC(C)c1ccc(C(C)NC(=O)Cn2cc(C(=O)NC3CCCC3)ccc2=O)cc1 (centres unmarked) [CBK286121]	89.9819
N#Cc1ccc(CNC(=O)N2CCCC(C(=O)O)C2)cc1 (centres unmarked) [CBK161352]	71.6255
CC(=O)c1ccc2[nH]c(C(=O)O)c(CCN)c2c1 [CBK260944]	90.7012
COc1ccc(S(=O)(=O)Nc2ccc(S(=O)(=O)Nc3nccs3)cc2)cc1C [CBK266011]	112.305
CCC(O)Cn1nc(CCSC)nc1-c1cc(=O)n(C)c2ccccc12 (centres unmarked) [CBK306596]	71.7912
CCC(NS(=O)(=O)c1ccc(Br)cc1)C(=O)O (centres unmarked) [CBK264472]	108.182
CN(C)CC(=O)Nc1cc(C(F)(F)F)ccc1Cl [CBK307420]	100.888
CC1(C)CC(=O)c2sc(NC(=O)Cc3ccc(Cl)c(Cl)c3)nc2C1 [CBK144103]	98.9988
CN1CCC(C(=O)N2CCN(c3ncccn3)CC2)CC1 [CBK144511]	98.0392
OCCn1c(S)nnc1-c1ccccc1 [CBK100025]	94.8263
CC(=O)N1CCN(C(C(=O)O)c2c[nH]c3ccc(NC(=O)C(C)C)cc23)CC1 (centres unmarked) [CBK286634]	88.0679
CN1CCN(CCC(=O)N/N=C/c2ccccn2)CC1 [CBK261501]	83.5537
O=C(O)CCSc1c[nH]c2ccccc12 [CBK262319]	49.7241

From publication PMC12040169 (PLOS Biology, 2025)
